This note sets out measurements from patent US7423058B2, “Inhibitors of hepatitis C virus NS3 protease” (Schering Corporation, priority 2004, dated 2008).

Structures are written as SMILES. pKi: −log10 of the molar value. Bounds are passed on as bounds.

The target of this assay is Recombinant heterodimeric HCV NS3/NS4A protease (strain 1a) (Hepatitis C virus genotype 1a, UniProt P27958). Description: Spectrophotometric assay for HCV protease inhibitory activity (chromogenic ester substrates). It counts as biochemical. The conditions noted are these: Table 3, Esters; read-out: Ki* Range.
For the compound `C=CCNC(=O)C(=O)C(CCC(F)(F)F)NC(=O)[C@@H]1[C@@H]2[C@H](CN1C(=O)[C@@H](NC(=O)N[C@H](C(=O)OCc1ccccc1)C1CCCC1)C(C)(C)C)C2(C)C` (some centres unmarked) [compound 4498], the pKi is above 7.12.
The value for `CC[C@@H](C)[C@H](NC(=O)N[C@H](C(=O)N1C[C@H]2[C@@H]([C@H]1C(=O)NC(CC1CC1)C(=O)C(N)=O)C2(C)C)C(C)(C)C)C(=O)OCc1ccccc1` (some centres unmarked) [compound 4499] was above 7.12.
The same measure for `CC(C)(C)OC(=O)[C@H](NC(=O)N[C@H](C(=O)N1C[C@H]2[C@@H]([C@H]1C(=O)NC(CC1CCC1)C(=O)C(N)=O)C2(C)C)C(C)(C)C)c1ccccc1` (some centres unmarked) [compound 4500]: above 7.12.
`C=CCOC(=O)C1(NC(=O)N[C@H](C(=O)N2C[C@H]3[C@@H]([C@H]2C(=O)NC(CC2CC2)C(=O)C(N)=O)C3(C)C)C(C)(C)C)CCCCC1` (some centres unmarked) [compound 4501]: the pKi was above 7.12.
With `CC(C)(C)[C@H](NC(=O)NC1(C(=O)OCc2ccccc2)CC2CCC1C2)C(=O)N1C[C@H]2[C@@H]([C@H]1C(=O)NC(CC1CCC1)C(=O)C(N)=O)C2(C)C` (some centres unmarked) [compound 4502], the pKi is above 7.12.
The value for `C=CCNC(=O)C(=O)C(CCC)NC(=O)[C@@H]1[C@@H]2[C@H](CN1C(=O)[C@@H](NC(=O)N[C@H](C(=O)O[C@H](C)c1ccccc1)C(C)C)C(C)(C)C)C2(C)C` (some centres unmarked) [compound 4503] was above 7.12; that for `CC(C)(C)OC(=O)CCNC(=O)C(=O)[C@H](CC1CC1)NC(=O)[C@@H]1[C@@H]2[C@H](CN1C(=O)[C@@H](NC(=O)N[C@H](C(=O)OCC1CC1)C(C)(C)C)C(C)(C)C)C2(C)C` [compound 4504] was above 7.12; that for `C=CCNC(=O)C(=O)C(CCC)NC(=O)[C@@H]1[C@@H]2[C@H](CN1C(=O)[C@@H](NC(=O)N[C@H](C(=O)OCC1CC1)C1CCCC1)C(C)(C)C)C2(C)C` (some centres unmarked) [compound 4505] was above 7.12.
For `CC(C)(C)[C@H](NC(=O)NC1(C(=O)OCc2ccco2)CCCCC1)C(=O)N1C[C@H]2[C@@H]([C@H]1C(=O)NC(CC1CCC1)C(=O)C(N)=O)C2(C)C` (some centres unmarked) [compound 4507], the pKi was above 7.12.
Regarding `CC[C@H](C)[C@H](NC(=O)N[C@H](C(=O)N1C[C@H]2[C@@H]([C@H]1C(=O)NC(CC1CC1)C(=O)C(N)=O)C2(C)C)C1CCCCC1)C(=O)OC(C)(C)C` (some centres unmarked) [compound 4508], the pKi was above 7.12.
The same measure for `C#CCCC(NC(=O)[C@@H]1[C@@H]2[C@H](CN1C(=O)[C@@H](NC(=O)N[C@H](C(=O)OC(C)(C)C)C(C)(C)C)C(C)(C)C)C21CCCC1)C(=O)C(=O)NCC=C` (some centres unmarked) [compound 4510]: above 7.12; for `CC(C)(C)C[C@H](NC(=O)N[C@H](C(=O)N1C[C@H]2[C@@H]([C@H]1C(=O)NC(CC1CC1(F)F)C(=O)C(N)=O)C2(C)C)C(C)(C)C)C(=O)OCc1ccccc1` (some centres unmarked) [compound 4511]: above 7.12.
On to `CC(C)(C)[C@H](NC(=O)NC1(C(=O)OCc2cc(F)cc(F)c2)CCCCC1)C(=O)N1C[C@H]2[C@@H]([C@H]1C(=O)NC(CC1CC1)C(=O)C(N)=O)C2(C)C` (some centres unmarked) [compound 4512], for which the pKi is above 7.12.
The value for `C=CCNC(=O)C(=O)C(CCC)NC(=O)[C@@H]1[C@@H]2[C@H](CN1C(=O)[C@@H](NC(=O)N[C@H](C(=O)OCC1CC1)C1CC1)C(C)(C)C)C2(C)C` (some centres unmarked) [compound 4513] was above 7.12; that for `CC(C)(C)[C@@H](NC(=O)N[C@H](C(=O)N1C[C@H]2[C@@H]([C@H]1C(=O)NC(CC1CCC1)C(=O)C(N)=O)C2(C)C)C1CCCCC1)C(=O)OCc1ccccc1` (some centres unmarked) [compound 4514] was above 7.12; that for `CC(C)(C)[C@H](NC(=O)N[C@H](C(=O)N1C[C@H]2[C@@H]([C@H]1C(=O)NC(CC1CCC1)C(=O)C(N)=O)C2(Cl)Cl)C1Cc2ccccc2C1)C(=O)OCc1ccccc1` (some centres unmarked) [compound 4515] was above 7.12.
The value for `CC[C@H](NC(=O)N[C@H](C(=O)N1C[C@H]2[C@@H]([C@H]1C(=O)NC(CC1CC1)C(=O)C(N)=O)C2(C)C)C(C)(C)C)C(=O)OCc1ccccc1` (some centres unmarked) [compound 4516] was above 7.12; that for `COC(=O)C(C)(C)NC(=O)N[C@H](C(=O)N1C[C@H]2[C@@H]([C@H]1C(=O)NC(CC1CCC1)C(=O)C(N)=O)C2(Cl)Cl)C1CCCCC1` (some centres unmarked) [compound 4517] was above 7.12.
For `CC(C)(C)[C@H](NC(=O)N[C@H](C(=O)N1C[C@H]2[C@@H]([C@H]1C(=O)NC(CC1CC1)C(=O)C(N)=O)C2(Cl)Cl)C(C)(C)C)C(=O)OCc1ccccc1` (some centres unmarked) [compound 4518], the pKi was above 7.12.
With `CC(C)[C@](C)(NC(=O)N[C@H](C(=O)N1C[C@H]2[C@@H]([C@H]1C(=O)NC(CC1CCC1)C(=O)C(N)=O)C2(C)C)C1CCCCC1)C(=O)OCc1ccccc1` (some centres unmarked) [compound 4519], the pKi was above 7.12.
The same measure for `CC[C@H](C)[C@H](NC(=O)N[C@H](C(=O)N1C[C@H]2[C@@H]([C@H]1C(=O)NC(CC1CC1)C(=O)C(N)=O)C2(C)C)C(C)(C)C)C(=O)OCc1ccc(OC)cc1` (some centres unmarked) [compound 4520]: above 7.12; for `C=CCNC(=O)C(=O)C(CCC)NC(=O)[C@@H]1[C@@H]2[C@H](CN1C(=O)[C@@H](NC(=O)N[C@H](C(=O)OCc1ccccc1)C1CC1)C(C)(C)C)C2(C)C` (some centres unmarked) [compound 4522]: above 7.12; for `CC(C)(C)OC(=O)CCNC(=O)C(=O)C(CC1CC1)NC(=O)[C@@H]1[C@@H]2[C@H](CN1C(=O)[C@@H](NC(=O)N[C@H](C(=O)OCc1ccccc1)C1CC1)C(C)(C)C)C2(C)C` (some centres unmarked) [compound 4523]: above 7.12.
Consider `C=CCNC(=O)C(=O)C(CCC)NC(=O)[C@@H]1[C@@H]2[C@H](CN1C(=O)[C@@H](NC(=O)N[C@H](C(=O)OC(C)(C)C)C(C)(C)C)C1CCCC1)C2(C)C` (some centres unmarked) [compound 4524], for which the pKi was above 7.12.
In the case of `C=CCNC(=O)C(=O)C(CCC)NC(=O)[C@@H]1[C@@H]2[C@H](CN1C(=O)[C@@H](NC(=O)N[C@H](C(=O)OC(C)(C)C)C(C)C)C1CCCC1)C2(C)C` (some centres unmarked) [compound 4525], the pKi is above 7.12.
As for `C=CCNC(=O)C(=O)C(CC1CC1)NC(=O)[C@@H]1[C@@H]2[C@H](CN1C(=O)[C@@H](NC(=O)N[C@H](C(=O)OC(C)(C)C)C(C)C)C1(C)CCCCC1)C2(C)C` (some centres unmarked) [compound 4526], the pKi was above 7.12.
The value for `CC(C)(C)[C@H](NC(=O)NC1(C(=O)OCc2ccccc2)CCCCC1)C(=O)N1C[C@H]2[C@@H]([C@H]1C(=O)NC(CC1CCC1)C(=O)C(N)=O)C2(Cl)Cl` (some centres unmarked) [compound 4527] was above 7.12; that for `C#CCCC(NC(=O)[C@@H]1[C@@H]2[C@H](CN1C(=O)[C@@H](NC(=O)NC(C(=O)OC(C)(C)C)C(C)(C)C)C(C)(C)C)C2(C)C)C(=O)C(=O)NCC#C` (some centres unmarked) [compound 4528] was above 7.12.
Consider `CC(C)[C@H](NC(=O)N[C@H](C(=O)N1C[C@H]2[C@@H]([C@H]1C(=O)NC(CC1CC1)C(=O)C(N)=O)C2(Cl)Cl)C(C)(C)C)C(=O)OC1Cc2ccccc2C1` (some centres unmarked) [compound 4529], for which the pKi was above 7.12.
The same measure for `CC(C)(C)[C@@H](NC(=O)N[C@@H](C(=O)N1C[C@H]2[C@@H]([C@H]1C(=O)NC(CC1CCC1)C(=O)C(N)=O)C2(Cl)Cl)C(C)(C)C)C(=O)OC1Cc2ccccc2C1` (some centres unmarked) [compound 4530]: above 7.12.
`C[C@@H]1CCCC1OC(=O)[C@@H](NC(=O)N[C@H](C(=O)N1C[C@H]2[C@@H]([C@H]1C(=O)NC(CC1CC1)C(=O)C(N)=O)C2(C)C)C(C)(C)C)C(C)(C)C` (some centres unmarked) [compound 4531]: the pKi is above 7.12.
The value for `CC(C)(C)OC(=O)C1(NC(=O)N[C@H](C(=O)N2C[C@H]3[C@@H]([C@H]2C(=O)NC(CC2CCC2)C(=O)C(N)=O)C3(C)C)C(C)(C)C)CCCCC1` (some centres unmarked) [compound 4532] was above 7.12; that for `CCC(CC)(NC(=O)N[C@H](C(=O)N1C[C@H]2[C@@H]([C@H]1C(=O)NC(CC1CC1)C(=O)C(N)=O)C2(C)C)C(C)(C)C)C(=O)OCC1CC1` (some centres unmarked) [compound 4533] was above 7.12; that for `CC(C)[C@H](NC(=O)N[C@H](C(=O)N1C[C@H]2[C@@H]([C@H]1C(=O)NC(CC1CC1)C(=O)C(N)=O)C2(C)C)C(C)C)C(=O)OCc1ccccc1` (some centres unmarked) [compound 4534] was above 7.12.
The same measure for `CC(C)(C)[C@H](NC(=O)NC1(C(=O)OCc2ccccc2)CCCCC1)C(=O)N1C[C@H]2[C@@H]([C@H]1C(=O)NC(CCC(F)(F)F)C(=O)C(N)=O)C2(C)C` (some centres unmarked) [compound 4535]: above 7.12.
As for `C=CCNC(=O)C(=O)C(CCCC)NC(=O)[C@@H]1[C@@H]2[C@H](CN1C(=O)[C@@H](NC(=O)N[C@H](C(=O)OC(C)C1CC1)C(C)C)C(C)(C)C)C2(Cl)Cl` (some centres unmarked) [compound 4537], the pKi is above 7.12.
The same measure for `C=CC(OC(=O)C1(NC(=O)N[C@H](C(=O)N2C[C@H]3[C@@H]([C@H]2C(=O)NC(CC2CC2)C(=O)C(N)=O)C3(C)C)C(C)(C)C)CCCCC1)c1ccccc1` (some centres unmarked) [compound 4539]: 6.60 to 7.12; for `CC(C)(C)[C@H](NC(=O)NC1(C(=O)OCc2ccccc2)CCCCC1)C(=O)N1C[C@H]2[C@@H]([C@H]1C(=O)NC(CC1CCC1)C(=O)C(N)=O)C2(C)C` (some centres unmarked) [compound 4540]: 6.60 to 7.12; for `CC1(C)[C@@H]2[C@@H](C(=O)NC(CC3CC3)C(=O)C(N)=O)N(C(=O)[C@@H](NC(=O)NC3(C(=O)OCc4ccccc4)CCCCC3)C3CCCCC3)C[C@@H]21` (some centres unmarked) [compound 4541]: 6.60 to 7.12.
The value for `CC(C)(C)[C@H](NC(=O)N[C@H](C(=O)N1C[C@H]2[C@@H]([C@H]1C(=O)NC(CC1CC1)C(=O)C(N)=O)C2(C)C)C(C)(C)C)C(=O)OCc1ccccc1` (some centres unmarked) [compound 4542] was 6.60 to 7.12; that for `C#CCOC(=O)C1(NC(=O)N[C@H](C(=O)N2C[C@H]3[C@@H]([C@H]2C(=O)NC(CC2CC2)C(=O)C(N)=O)C3(C)C)C(C)(C)C)CCCCC1` (some centres unmarked) [compound 4543] was 6.60 to 7.12.
The same measure for `C[C@@H](OC(=O)C1(NC(=O)N[C@H](C(=O)N2C[C@H]3[C@@H]([C@H]2C(=O)NC(CC2CC2)C(=O)C(N)=O)C3(C)C)C(C)(C)C)CCCCC1)c1ccccc1` (some centres unmarked) [compound 4544]: 6.60 to 7.12; for `CC(C)[C@H](NC(=O)N[C@H](C(=O)OCc1ccccc1)C(C)(C)C)C(=O)N1C[C@H]2[C@@H]([C@H]1C(=O)NC(CC1CC1)C(=O)C(N)=O)C2(C)C` (some centres unmarked) [compound 4545]: 6.60 to 7.12.
Regarding `C=CCNC(=O)C(=O)C(CCCC)NC(=O)[C@@H]1[C@@H]2[C@H](CN1C(=O)[C@@H](NC(=O)N[C@H](C(=O)OC(C)(C)C)C(C)C)C1Cc3ccccc3C1)C2(C)C` (some centres unmarked) [compound 4546], the pKi was 6.60 to 7.12.

What is called pKi is −log10 of the Ki, conventionally taken in molar units.
